Source: PubChem BioAssay AID2546 (National Center for Advancing Translational Sciences (NCATS), 2010)
About 11,000 (3.5%) of roughly 310,000 compounds were called active. Inconclusive means that the source gave no clear call. Such entries were picked first, then a sample of the others. Calls come from the whole dose curve; as a rule, active = well fitted inhibition curve with a large enough effect; inconclusive = small, poorly fitted or top-dose-only effect, or effect the other way; inactive = flat fitted curve, though single readings scatter. Potencies of inconclusive entries are left out as doubtful fits.

Experiment: VP16 counterscreen qHTS for inhibitors of ROR gamma transcriptional activity;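 note: Gal4-VP16 expression switched on by copper sulfate through the metallothionein promoter; nearly all actives have a fitted effect of over 50% in size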
Conditions: Drosophila S2 Gal4-VP16 UAS-luciferase, luminescence, 20 h; activity, negative = inhibition: at 53.6 µM (top of the series)
% is set by controls: 0 for no effect and ±100 for the full control effect; potency is the fitted concentration of half-maximal effect; tags give direction and shape of the fitted curve.

| Structure (SMILES) | Potency | activity, negative = inhibition |
| --- | --- | --- |
| Cc1ccc(NC(=O)c2nc[nH]c2C(=O)N2CCC(C)CC2)cc1 | inconclusive [inhibitor, single point] | – |
| Cc1ccc(NC(=O)C(c2ccccc2)N(C)C)cc1Cl (centres undefined) | inconclusive [inhibitor, single point] | – |
| CC(=O)c1ccc(NC(=S)N2CCN(c3ccccn3)CC2)cc1 | – | inactive: -2.68% |
| COc1ccc2oc(=N)c(C(=O)Nc3cccc(C)c3C)cc2c1 | – | inactive: -28.3% |
| CCCOc1ccc(C(=O)NCCc2ccccc2)cc1 | active: 14.1 µM | – |
| CCCN1CNC(=S)N(c2ccccc2OCC)C1 | inconclusive [inhibitor, single point] | – |
| CCN(CC)S(=O)(=O)c1cccc(-c2nnc(C(=O)c3ccc(C(F)(F)F)cc3)o2)c1 | – | inactive: -3.54% |
| CC(NC(=O)/C(C#N)=C/c1ccc([N+](=O)[O-])o1)c1ccccc1 (centres undefined) | active: 2.51 µM | – |
| CCOC(=O)c1cnc(-n2nc(C)cc2C)nc1Nc1ccc(N(C)C)cc1 | active: 1.12 µM | – |
| CCOc1ccc(-n2cc(-c3ccc(OC)c(OC)c3)[nH]c2=S)cc1 | inconclusive [inhibitor, single point] | – |
| Cc1cc(=O)n2[nH]c(-c3ccc(C(C)(C)C)cc3)cc2n1 | active: 22.4 µM | – |
| CCCn1c(SCC(=O)Nc2cc(S(=O)(=O)N3CCOCC3)ccc2OC)n[nH]c1=O | – | inactive: -1.14% |
| COC(=O)c1ccc(NC(=S)NC(=O)c2cccnc2)cc1 | inconclusive [inhibitor, single point] | – |
| COc1ccc(CN(C(=O)c2ccc(CN3CCOCC3)o2)C(C(=O)NCC2CCCO2)c2ccc(F)cc2)cc1 (centres undefined) | inconclusive [inhibitor, single point] | – |
| O=C(NC12CC3CC(CC(C3)C1)C2)c1ccccc1O | inconclusive [inhibitor, single point] | – |
| Cc1ccccc1/C(N)=N/OC(=O)c1ccc(F)cc1 | – | inactive: -11.7% |
| COc1ccccc1NCCC(=O)OCC(=O)NC1CC1 | – | inactive: -4.71% |
| Cc1cc(C)nc(SCc2nc3ccccc3n2C)n1 | inconclusive [inhibitor, single point] | – |
| CC(C)(C)c1ccc(NC(=O)c2ccsc2)cc1 | active: 7.94 µM | – |
| Cc1cc2nc(-c3ccc(SCC(=O)Nc4ccc(S(=O)(=O)NC5CC5)cc4)nc3)[nH]c2cc1C | inconclusive [inhibitor, single point] | – |
| COc1ccccc1C(=O)Nc1ccnn1C1CCN(C/C=C/c2ccc(F)cc2)CC1 | – | inactive: 7.47% |
| O=C(Nc1ccc(NC(=O)c2ccccc2F)cn1)c1ccco1 | active: 12.6 µM | – |
| O=C(Nc1ccc(F)c(Cl)c1)NC1CC1 | – | inactive: -3.25% |
| CC(C)NC(=O)c1ccccc1NC(=O)/C=C/c1cccc([N+](=O)[O-])c1 | active: 7.94 µM | – |
| COc1ccc(NC(=O)CSc2n[nH]c(-c3ccco3)n2)cc1 | inconclusive [inhibitor, partial curve] | – |

| Structure (SMILES) | Potency | activity, negative = inhibition |
| --- | --- | --- |
| COC(=O)c1cc(NC(=O)c2cccc(C(F)(F)F)c2)c(=O)oc1C/C=N/OCc1cccc(Cl)c1Cl | – | inactive: -4.63% |
| COc1ccc(C2SCCN2C(=S)Nc2ccc(Cl)cc2)cc1 (centres undefined) | inconclusive [inhibitor, single point] | – |
| CC(C)COc1ccc(CNC(=S)N/N=C/c2ccc([N+](=O)[O-])cc2)cc1 | active: 4.47 µM | – |
| CCOC(=O)C(NC(=O)N1CCCCC1)(c1ccccc1)C(F)(F)F (centres undefined) | – | inactive: -3% |
| COc1ccc2c(c1)c1nnc(SC)nc1n2C | – | inactive: 1.27% |
| CCOc1cc(/C=N\NC(N)=O)cc(Br)c1OC(C)C | inconclusive [inhibitor, single point] | – |
| CCOC(=O)C1CCCN(C(=O)c2ccc3c(c2)NC(=O)C(N2CCOCC2)S3)C1 (centres undefined) | inconclusive [inhibitor, single point] | – |
| CN(C)S(=O)(=O)c1cccc(C(=O)N=C2N=C3C=CC(Cl)=CN3Cc3ccccc32)c1 | inconclusive [inhibitor, single point] | – |
| O=C(/C=C/c1ccco1)NC(=S)Nc1nc(-c2ccc3ccccc3c2)cs1 | inconclusive [inhibitor, single point] | – |
| C=CCn1c(-c2cccn(Cc3cccc(Cl)c3)c2=O)n[nH]c1=S | inconclusive [inhibitor, single point] | – |
| COc1ccc([N+](=O)[O-])cc1N(CC(=O)N1CCCC1)S(C)(=O)=O | – | inactive: 3.21% [at 10 µM] |
| COc1ccc(O[C@H]2C=C[C@@H](c3ccccc3)O[C@@H]2COC(=O)CC/C(C)=N/OC[C@@H](O)[C@H]2O[C@@H]3OC(C)(C)O[C@@H]3[C@H]2O)cc1 | – | inactive: -0.956% |
| O=C(Nc1ccc2c(c1)CCC2)C1CCCO1 (centres undefined) | inconclusive [activator, single point] | – |
| Cc1cc(C(=O)CN2C(=O)C3CC=CCC3C2=O)c(C)n1-c1ccccc1 (centres undefined) | active: 12.6 µM | – |
| COc1cc2c3nnc(-c4ccc(F)cc4)c-3cn(Cc3ccc(C)cc3)c2cc1OC | active: 3.98 µM | – |
| CC(C)(C)OC(=O)NCCCCCc1nnc(SCC(=O)Nc2cccc(Cl)c2)o1 | inconclusive [inhibitor, single point] | – |
| COC(=O)C(Cc1ccc(OC(=O)c2ccc(C(F)(F)F)cc2)cc1)N1Cc2ccccc2C1=O (centres undefined) | – | inactive: -29% |
| Cc1ccc(C(=O)N(CCCN(C)C)c2nc3ccc(Cl)cc3s2)cc1C | active: 17.8 µM | – |
| Fc1ccc(-c2cc(-c3nnc4n3CCCCC4)c3ccccc3n2)cc1 | active: 11.2 µM | – |
| CC(C)n1c(-c2ccco2)csc1=Nc1cccnc1 | inconclusive [inhibitor, single point] | – |
| Cc1ccc(OCc2cc(C(=O)NC3CCCCC3)no2)cn1 | inconclusive [inhibitor, single point] | – |
| CCC/C=N/NC(=O)CNC(=O)c1ccccc1Cl | – | inactive: 9.94% |
| O=C(NCCc1ccc2c(c1)OCCO2)c1ccc([N+](=O)[O-])cc1Cl | – | inactive: 1.32% |
| CCOc1ccc(-c2nc(CCl)cs2)cc1OC | inconclusive [inhibitor, single point] | – |
